{"source": "the supplement of paper PMC3334620", "note": "The full ranking holds about 33,000 sequences; the median of “E-score (-0.5 to 0.5)” is about -0.053, and the highest 2% start at about 0.37. This is one part of the list."}
{"target": "Hap1 (UniProt P0CE41)", "sequence (P0CE41 whole entry, the tested form may be a part)": "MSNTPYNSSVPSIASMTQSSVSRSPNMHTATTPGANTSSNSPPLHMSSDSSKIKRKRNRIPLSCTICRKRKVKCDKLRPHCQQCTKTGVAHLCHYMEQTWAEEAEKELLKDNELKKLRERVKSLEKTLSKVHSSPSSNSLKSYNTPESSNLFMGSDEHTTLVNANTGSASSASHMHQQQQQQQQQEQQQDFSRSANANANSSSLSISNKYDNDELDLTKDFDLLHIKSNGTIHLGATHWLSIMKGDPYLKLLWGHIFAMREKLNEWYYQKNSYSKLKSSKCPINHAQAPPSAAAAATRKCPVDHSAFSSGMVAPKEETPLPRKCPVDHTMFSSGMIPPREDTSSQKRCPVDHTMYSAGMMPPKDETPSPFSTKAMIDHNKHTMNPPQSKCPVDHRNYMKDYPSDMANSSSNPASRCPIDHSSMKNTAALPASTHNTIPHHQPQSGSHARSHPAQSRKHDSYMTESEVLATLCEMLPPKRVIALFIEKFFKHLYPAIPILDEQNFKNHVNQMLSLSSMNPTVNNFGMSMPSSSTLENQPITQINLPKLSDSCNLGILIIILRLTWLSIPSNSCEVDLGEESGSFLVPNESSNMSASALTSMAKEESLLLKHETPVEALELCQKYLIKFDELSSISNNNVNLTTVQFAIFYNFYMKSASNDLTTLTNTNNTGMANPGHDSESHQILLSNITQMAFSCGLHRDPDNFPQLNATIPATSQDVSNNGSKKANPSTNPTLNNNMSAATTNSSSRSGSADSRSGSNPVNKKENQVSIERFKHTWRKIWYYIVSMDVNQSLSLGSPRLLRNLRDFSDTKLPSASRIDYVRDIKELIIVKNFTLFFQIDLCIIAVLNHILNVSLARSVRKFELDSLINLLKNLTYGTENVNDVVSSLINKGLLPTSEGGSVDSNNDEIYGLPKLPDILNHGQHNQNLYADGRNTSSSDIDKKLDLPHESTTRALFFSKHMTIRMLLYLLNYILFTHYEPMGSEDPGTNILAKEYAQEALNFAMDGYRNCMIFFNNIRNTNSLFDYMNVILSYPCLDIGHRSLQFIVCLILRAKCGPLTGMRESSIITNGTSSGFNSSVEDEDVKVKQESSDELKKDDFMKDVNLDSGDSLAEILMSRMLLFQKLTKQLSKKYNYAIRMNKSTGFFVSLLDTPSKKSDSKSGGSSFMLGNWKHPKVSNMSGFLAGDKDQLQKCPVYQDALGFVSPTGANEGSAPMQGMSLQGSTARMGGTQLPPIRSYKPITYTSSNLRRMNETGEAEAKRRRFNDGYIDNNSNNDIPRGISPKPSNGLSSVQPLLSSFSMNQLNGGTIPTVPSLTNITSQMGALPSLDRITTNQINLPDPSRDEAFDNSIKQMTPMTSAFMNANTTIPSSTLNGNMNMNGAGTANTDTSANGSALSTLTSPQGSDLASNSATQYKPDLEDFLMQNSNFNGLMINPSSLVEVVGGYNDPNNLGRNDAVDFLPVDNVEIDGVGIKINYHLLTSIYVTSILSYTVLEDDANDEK", "assay": "PBM E-score (8-mer binding enrichment) (E-score (-0.5 to 0.5)); higher = stronger / more preferred TF binding; most listed sequences are background and not binding sites", "conditions": "protein concentration: 200 nM; construct: GST-DNA-binding domain", "method": "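Universal 'all 10-mer' protein binding microarrays (Agilent AMADID 015681) probed with GST-tagged S. cerevisiae TFs (full-length or DBD) made by in vitro transcription/translation (PURExpress), about 100-200 nM. Bound TF was detected with fluorescent anti-GST. Each ungapped 8-mer (which stands for itself and its reverse complement) is scored by the PBM enrichment score (E-score), a modified Wilcoxon-Mann-Whitney statistic from -0.5 to +0.5, computed with the Universal PBM Analysis Suite. Scale: above 0.35 generally sequence-specific binding.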"}
{"sequence": "CTCAATGA", "PBM E-score": -0.0841}
{"sequence": "CCCCGTAG", "PBM E-score": "8e-05"}
{"sequence": "ACCTATGG", "PBM E-score": -0.0323}
{"sequence": "CTATCCCA", "PBM E-score": -0.245}
{"sequence": "GAGAAACC", "PBM E-score": 0.0923}
{"sequence": "AGACGAGG", "PBM E-score": -0.0977}
{"sequence": "AGTAATTA", "PBM E-score": -0.134}
{"sequence": "CCTCCTTA", "PBM E-score": -0.228}
{"sequence": "ACGTGTGA", "PBM E-score": -0.223}
{"sequence": "ACTGTTCG", "PBM E-score": 0.0461}
{"sequence": "ATAACGCC", "PBM E-score": 0.316}
{"sequence": "ATCGCGTA", "PBM E-score": -0.00116}
{"sequence": "TAAACGTA", "PBM E-score": -0.178}
{"sequence": "AACTCTTC", "PBM E-score": 0.0217}
{"sequence": "AACCGGTG", "PBM E-score": 0.329}
{"sequence": "TAGTTTGA", "PBM E-score": -0.0367}
{"sequence": "CTCGTACA", "PBM E-score": -0.0854}
{"sequence": "CGGGAATC", "PBM E-score": 0.318}
{"sequence": "GCTGGGCC", "PBM E-score": -0.0162}
{"sequence": "TATTCACA", "PBM E-score": 0.0793}
{"sequence": "CACTCGCG", "PBM E-score": -0.0188}
{"sequence": "ATGTGGAA", "PBM E-score": -0.0872}
{"sequence": "GGAATAAC", "PBM E-score": 0.266}
{"sequence": "CTGGTTAA", "PBM E-score": -0.112}
{"sequence": "CCTCTTAG", "PBM E-score": 0.0746}
{"sequence": "TAGCGCCA", "PBM E-score": -0.128}
{"sequence": "ACTTCAGA", "PBM E-score": -0.14}
{"sequence": "CAACTGAG", "PBM E-score": -0.0425}
{"sequence": "GACAACCA", "PBM E-score": -0.163}
{"sequence": "CGGTCAAC", "PBM E-score": 0.264}
{"sequence": "AGACGCCG", "PBM E-score": 0.182}
{"sequence": "TAGGGATA", "PBM E-score": -0.0988}
{"sequence": "GAAGCCGA", "PBM E-score": 0.308}
{"sequence": "CGGCCCAC", "PBM E-score": 0.114}
{"sequence": "GGCATCGA", "PBM E-score": -0.206}
{"sequence": "CCCTCCGC", "PBM E-score": 0.036}
{"sequence": "AATACACA", "PBM E-score": -0.178}
{"sequence": "CCTGTTAA", "PBM E-score": -0.164}
{"sequence": "ATAGAACA", "PBM E-score": -0.113}
{"sequence": "AAAGGTCT", "PBM E-score": -0.0454}
{"sequence": "AGAGTGTA", "PBM E-score": -0.192}
{"sequence": "CGTCACTA", "PBM E-score": 0.0856}
{"sequence": "CCAATCAG", "PBM E-score": -0.277}
{"sequence": "AGCGGCAG", "PBM E-score": -0.016}
{"sequence": "CCGTGTTA", "PBM E-score": 0.0303}
{"sequence": "ACCTTTAG", "PBM E-score": -0.0283}
{"sequence": "ACTAAGGC", "PBM E-score": -0.0482}
{"sequence": "ATGTACTA", "PBM E-score": -0.14}
{"sequence": "GTAGCGGA", "PBM E-score": 0.342}
{"sequence": "CGTCGGGA", "PBM E-score": 0.203}
{"sequence": "CTGGTCGC", "PBM E-score": -0.00987}
{"sequence": "ATTGGCAA", "PBM E-score": -0.122}
{"sequence": "ACGCGGAT", "PBM E-score": 0.18}
{"sequence": "ATTTCCCG", "PBM E-score": 0.301}
{"sequence": "TAGAGGAA", "PBM E-score": -0.183}
{"sequence": "ATCACGCA", "PBM E-score": -0.12}
{"sequence": "AAAGCGCT", "PBM E-score": 0.123}
{"sequence": "AACTGTGT", "PBM E-score": -0.00838}
{"sequence": "GCTTGACA", "PBM E-score": -0.139}
{"sequence": "AGCAAGCA", "PBM E-score": -0.307}
{"sequence": "TCCATGAA", "PBM E-score": 0.0122}
{"sequence": "CGAGCAAC", "PBM E-score": 0.0444}
{"sequence": "GGTTACCA", "PBM E-score": 0.0587}
{"sequence": "ACGGCCAT", "PBM E-score": 0.078}
{"sequence": "GCCCCCGC", "PBM E-score": 0.0792}
{"sequence": "GACGCTGA", "PBM E-score": -0.0921}
{"sequence": "TCACGTAA", "PBM E-score": -0.306}
{"sequence": "GTCGATTA", "PBM E-score": -0.0762}
{"sequence": "CGGCCAAA", "PBM E-score": 0.191}
{"sequence": "ATTGTTAA", "PBM E-score": -0.12}
{"sequence": "CACCGCTA", "PBM E-score": 0.139}
{"sequence": "CTGTTAAG", "PBM E-score": -0.143}
{"sequence": "AACGTAAT", "PBM E-score": -0.248}
{"sequence": "AGGCTCGC", "PBM E-score": 0.142}
{"sequence": "CGAAGGAA", "PBM E-score": -0.148}
{"sequence": "ATCGGAGC", "PBM E-score": 0.396}
{"sequence": "ATAAGGGA", "PBM E-score": -0.105}
{"sequence": "ATGTTAAT", "PBM E-score": -0.0735}
{"sequence": "GAGGGACA", "PBM E-score": -0.182}
{"sequence": "ATTCTAAA", "PBM E-score": 0.0225}
{"sequence": "CCAGCCGC", "PBM E-score": 0.181}
{"sequence": "AGATTAAA", "PBM E-score": 0.0664}
{"sequence": "CCATTGAC", "PBM E-score": -0.207}
{"sequence": "TCCGTTCA", "PBM E-score": 0.169}
{"sequence": "AGAGTACG", "PBM E-score": -0.0895}
{"sequence": "AAATGGCA", "PBM E-score": -0.0283}
{"sequence": "GTAGTATA", "PBM E-score": 0.0209}
{"sequence": "AAGGCTTA", "PBM E-score": -0.264}
{"sequence": "CATGCTCG", "PBM E-score": -0.161}
{"sequence": "CAAAGGGC", "PBM E-score": -0.0894}
{"sequence": "ATGGGACG", "PBM E-score": 0.00065}
{"sequence": "ATTACCTG", "PBM E-score": -0.0504}
{"sequence": "CCGCAGCA", "PBM E-score": 0.0447}
{"sequence": "CTTTTAAA", "PBM E-score": 0.0478}
{"sequence": "AAGGCCGT", "PBM E-score": 0.212}
{"sequence": "AGTGTTAC", "PBM E-score": 0.0606}
{"sequence": "AGGCGCCG", "PBM E-score": 0.0638}
{"sequence": "ACCGCATG", "PBM E-score": -0.00118}
{"sequence": "ACGCTTGA", "PBM E-score": -0.152}
{"sequence": "CTAGAGTA", "PBM E-score": -0.173}
{"sequence": "ATCAATAG", "PBM E-score": -0.126}
{"sequence": "AACCCTTC", "PBM E-score": -0.0491}
{"sequence": "CTCCCTCA", "PBM E-score": -0.255}
{"sequence": "AATTCGTC", "PBM E-score": -0.103}
{"sequence": "AAATGGGG", "PBM E-score": -0.186}
{"sequence": "ATAGGACA", "PBM E-score": -0.247}
{"sequence": "CCACGTTA", "PBM E-score": -0.207}
{"sequence": "ACTATCCA", "PBM E-score": -0.0344}
{"sequence": "CGCGCAAC", "PBM E-score": 0.0444}
{"sequence": "ATGGACCA", "PBM E-score": -0.194}
{"sequence": "AATCTAAT", "PBM E-score": -0.06}
{"sequence": "CGGCGGAA", "PBM E-score": 0.396}
{"sequence": "ATCCGTGC", "PBM E-score": 0.169}
{"sequence": "GTGTGTTA", "PBM E-score": -0.216}
{"sequence": "GAGGACCA", "PBM E-score": -0.123}
{"sequence": "TATTTGGA", "PBM E-score": -0.215}
{"sequence": "GGCTATGA", "PBM E-score": -0.0592}
{"sequence": "CATAGGAA", "PBM E-score": -0.189}
{"sequence": "CCCAGACA", "PBM E-score": -0.136}
{"sequence": "AGTCCTCC", "PBM E-score": -0.0508}
{"sequence": "CCACGAGA", "PBM E-score": -0.13}
{"sequence": "GCACTGAC", "PBM E-score": -0.0453}
{"sequence": "GCCCTGGA", "PBM E-score": -0.0261}
{"sequence": "CCCGATGC", "PBM E-score": 0.263}
{"sequence": "ACACAAAC", "PBM E-score": -0.0187}
{"sequence": "ACACCAGT", "PBM E-score": -0.369}
{"sequence": "AGAACCCA", "PBM E-score": -0.335}
{"sequence": "GAACTCAC", "PBM E-score": -0.157}
{"sequence": "CTTGAAGC", "PBM E-score": -0.0989}
{"sequence": "ATAGGCGC", "PBM E-score": 0.0692}
{"sequence": "CCCCGTCA", "PBM E-score": 0.091}
{"sequence": "ACGTATAA", "PBM E-score": -0.121}
{"sequence": "ACCCCTAG", "PBM E-score": -0.372}
{"sequence": "ATTCCAGC", "PBM E-score": 0.0839}
{"sequence": "AGTCTTCC", "PBM E-score": -0.0885}
{"sequence": "CGGATGCA", "PBM E-score": 0.234}
{"sequence": "GGTGAGAC", "PBM E-score": -0.117}
{"sequence": "GAATTTGC", "PBM E-score": 0.14}
{"sequence": "ACTAAAGT", "PBM E-score": -0.233}
{"sequence": "AGGAAAGC", "PBM E-score": -0.0721}
{"sequence": "CGACAATC", "PBM E-score": 0.0677}
{"sequence": "CTACGAAA", "PBM E-score": -0.202}
{"sequence": "CATAAAGA", "PBM E-score": -0.199}
{"sequence": "AGCACCAC", "PBM E-score": -0.238}
{"sequence": "TCAGTACA", "PBM E-score": -0.245}
{"sequence": "GCCGTGCC", "PBM E-score": 0.177}
{"sequence": "CTCTGACA", "PBM E-score": -0.112}
{"sequence": "AATACCGT", "PBM E-score": 0.252}
{"sequence": "ATGTTCCC", "PBM E-score": -0.0217}
{"sequence": "AACTGCAA", "PBM E-score": -0.174}
{"sequence": "CACCGTGC", "PBM E-score": -0.0755}
{"sequence": "CCGCGGAA", "PBM E-score": 0.317}
{"sequence": "CCCGGACC", "PBM E-score": 0.361}
{"sequence": "GGCAACGA", "PBM E-score": 0.0544}
{"sequence": "ACGATACG", "PBM E-score": -0.263}
{"sequence": "CGGTCTCC", "PBM E-score": 0.297}
{"sequence": "CGAAGGGA", "PBM E-score": 0.0478}
{"sequence": "CCCGACCG", "PBM E-score": 0.379}
{"sequence": "CTAGTCCA", "PBM E-score": -0.0856}
{"sequence": "GAATCGGA", "PBM E-score": 0.366}
{"sequence": "AGTTTGAT", "PBM E-score": 0.00106}
{"sequence": "CAACCCCA", "PBM E-score": -0.0735}
{"sequence": "CAAAGTGA", "PBM E-score": -0.0346}
{"sequence": "CAGACACC", "PBM E-score": -0.08}
{"sequence": "CCAAACCA", "PBM E-score": -0.124}
{"sequence": "GGCGCACC", "PBM E-score": 0.107}
{"sequence": "AGACGTAT", "PBM E-score": -0.0652}
{"sequence": "AGTGATCA", "PBM E-score": -0.103}
{"sequence": "GTTATTAA", "PBM E-score": 0.145}
{"sequence": "AACTGCAG", "PBM E-score": -0.277}
{"sequence": "TAGGATCA", "PBM E-score": -0.131}
{"sequence": "AACGCGAG", "PBM E-score": -0.0745}
